# From article PMC4336329 (PLoS ONE, 2015)
# In all, about 310,000 compounds went through this assay and about 2,200 (0.71%) showed an effect of 50% or more. Effects have a minus sign here. The list shows a part of the results.
# Molecular target: human ether-à-go-go-related gene (hERG) potassium channel (human, UniProt Q12809)
# Experiment: primary screen, population patch clamp on CHO cells stably expressing hERG
# Sequence of human ether-à-go-go-related gene (hERG) potassium channel (Q12809 whole entry, looked up): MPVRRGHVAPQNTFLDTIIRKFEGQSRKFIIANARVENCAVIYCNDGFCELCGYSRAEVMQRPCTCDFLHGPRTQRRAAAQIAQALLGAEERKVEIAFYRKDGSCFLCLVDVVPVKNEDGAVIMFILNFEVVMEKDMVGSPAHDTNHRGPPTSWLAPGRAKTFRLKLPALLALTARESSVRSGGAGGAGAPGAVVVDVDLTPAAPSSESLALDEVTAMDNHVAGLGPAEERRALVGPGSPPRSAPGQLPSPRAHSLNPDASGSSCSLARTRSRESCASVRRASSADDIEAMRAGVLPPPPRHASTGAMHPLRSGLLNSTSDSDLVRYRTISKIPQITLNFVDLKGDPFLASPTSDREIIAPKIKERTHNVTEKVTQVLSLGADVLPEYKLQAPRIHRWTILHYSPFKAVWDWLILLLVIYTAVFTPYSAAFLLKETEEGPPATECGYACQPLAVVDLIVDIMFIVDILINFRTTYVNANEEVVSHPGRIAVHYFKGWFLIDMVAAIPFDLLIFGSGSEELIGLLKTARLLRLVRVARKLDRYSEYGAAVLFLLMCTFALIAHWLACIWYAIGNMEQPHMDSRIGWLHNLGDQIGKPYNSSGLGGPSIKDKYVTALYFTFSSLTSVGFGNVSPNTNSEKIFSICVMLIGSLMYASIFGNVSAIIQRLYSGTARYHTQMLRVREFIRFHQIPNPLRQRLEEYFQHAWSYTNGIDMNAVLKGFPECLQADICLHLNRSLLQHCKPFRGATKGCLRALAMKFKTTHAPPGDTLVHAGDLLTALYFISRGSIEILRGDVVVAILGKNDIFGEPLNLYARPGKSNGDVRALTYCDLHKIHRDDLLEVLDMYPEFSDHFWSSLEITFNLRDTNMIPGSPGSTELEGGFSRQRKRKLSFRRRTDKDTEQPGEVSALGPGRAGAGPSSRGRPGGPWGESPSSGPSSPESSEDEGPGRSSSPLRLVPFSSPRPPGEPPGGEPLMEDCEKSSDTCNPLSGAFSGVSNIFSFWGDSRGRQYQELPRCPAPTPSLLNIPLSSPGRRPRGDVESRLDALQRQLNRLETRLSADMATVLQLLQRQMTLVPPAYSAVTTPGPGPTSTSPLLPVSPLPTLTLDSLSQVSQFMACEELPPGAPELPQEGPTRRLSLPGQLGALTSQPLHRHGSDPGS
row,SMILES,"hERG current change (%, negative = inhibition) at 1uM [%]"
1,Cn1cccc1Cc1nnc(SCC(=O)Nc2ccc(F)cc2)n1-c1ccc(F)cc1,4.03
2,COc1ccccc1CNC(=O)CN1CCC(n2cnc3cc(F)ccc32)CC1,-59.1
3,Cc1cc(OC(C)C(=O)Nc2ccccc2C(=O)N2CCCC2)ccc1Cl (stereo not shown),-1.78
4,O=C(/C=C/c1ccccc1)N1c2ccccc2Sc2ccc(C(F)(F)F)cc21,13.5
5,Cc1noc(C)c1CSc1ccccc1C(=O)N(C)CC(=O)Nc1cccc(F)c1,10.6
6,CC1(C)CC(=O)C(C(=O)c2ccccc2)C(=O)C1,0.985
7,CCOc1ccc(C(=O)Nn2cnnc2)cc1,6.89
8,CCCCC(=O)NC(=S)Nc1ccc(NC(=O)C(C)C)c(OC)c1,8.9
9,COc1ccccc1Oc1nc(C)c(C(C)=O)cc1C#N,13
10,COc1ccc(C(CC(=O)N2CCOCC2)c2c(OC)cc(OC)c3c(-c4ccccc4)cc(=O)oc23)cc1 (stereo not shown),16.3
11,CC(NC(=O)CN(C)CC(=O)Nc1cccc(F)c1)c1ccccc1 (stereo not shown),9.42
12,CC(SC1=NCCS1)C(=O)Nc1nnc(-c2ccc(Cl)cc2)s1 (stereo not shown),10.6
13,O=[N+]([O-])c1ccc(N2CCC(O)CC2)nc1,10.5
14,CCN(CC(=O)Nc1c(F)cccc1F)C(=O)CCN1C(=O)C2CC=CCC2C1=O (stereo not shown),12.6
15,Fc1ccc(Cn2nnnc2CN2CCN(C3CCCC3)CC2)cc1,-9.46
16,Cc1ccc(-n2c(SCCN)nnc2-c2cccc(C)c2)cc1.O=C(O)C(=O)O,-8.4
17,Cc1ccc(-n2ccnc2SCC(=O)O)c(C)c1,14.1
18,CCc1ccc(NC(=S)N(Cc2ccccc2)Cc2ccccn2)cc1,9.77
19,Cl.O=C(c1ccc(COc2ccccc2Cl)o1)N1CCN(Cc2ccc3c(c2)OCO3)CC1,4.64
20,CCCC(=O)Nc1ccc2c(c1)nc1n2CCSC1,-2.7
21,Cl.Oc1ccccc1Nc1nc(NCc2ccccc2)c2ccccc2n1,7.76
22,CN(Cc1ccccc1)c1nnc(N)s1,9.56
23,Cc1nn(C(C)C)c(C)c1CN1CCCC(CCC(=O)NCc2ccccc2F)C1 (stereo not shown),15.7

row,SMILES,"hERG current change (%, negative = inhibition) at 1uM [%]"
1,O=C(CC(O)(c1ccccc1)C(F)(F)F)c1cccs1 (stereo not shown),8.8
2,COCCCNc1nc(N)c([N+](=O)[O-])c(N2CCCCCC2)n1,17.7
3,CCCNS(=O)(=O)/C=C/c1ccccc1,6.96
4,Fc1ccc(NC(=S)Nc2ccccc2N2CCOCC2)cc1Cl,8.59
5,CC(=O)N1CCc2cc(S(=O)(=O)CCC(=O)N3CCN(c4ccccc4)CC3)ccc21,15.1
6,CC(C)C(=O)Nc1ccc2c(c1)Cc1cc(NC(=O)C(C)C)ccc1-2,18.8
7,COc1ccc(C2C(C(C)=O)=C(C)N=c3s/c(=C\c4ccco4)c(=O)n32)c(OC)c1 (stereo not shown),-6.75
8,Cc1ccc(-c2nc3ncccn3c2Nc2ccc3c(c2)OCCO3)cc1,18.1
9,O=C(CS(=O)(=O)c1ccccc1)N1CCCCCC1,9.28
10,COc1ccc(C(=O)NC(=O)N2CCCCC2)cc1,11.5
11,O=c1[nH]c(=O)n(C2CCCO2)cc1Br (stereo not shown),11.1
12,O=C(CCNC(=O)c1ccccc1Cl)Nc1nnc(C2CC2)s1,12
13,COc1ccc(CCNC(=O)CSc2ccc3ccccc3c2)cc1OC,-0.395
14,Cc1ccc(-c2cc(C(=O)NC3CCN(Cc4ccccc4)CC3)c3ccccc3n2)cc1,9.83
15,COc1cccc(C(=O)Oc2cc3c4c(c2)C(C)=CC(C)(C)N4C(=O)C3=O)c1,6.09
16,Cc1cc2c(cc(C(=O)O)n2C)s1,4.27
17,NCCNc1ccc2nnnn2n1,27.8
18,CCc1cccc2c(-c3csc(=NC)n3C)c[nH]c12,2.22
19,NNC(=O)c1nn(-c2ccc(Cl)cc2)cc1O,-9.09
20,COc1ccc(C(=O)N/N=C/c2cc3ccccc3[nH]c2=O)cc1,13.3
21,O=C(N/C(=C\c1ccc([N+](=O)[O-])cc1)C(=O)N1CCCCC1)c1ccccc1,-73.2
22,COc1ccc(NC(=O)C2CCCN(c3nn4c(=O)cc(C)nc4s3)C2)cc1 (stereo not shown),3.79
23,COc1ccc(-c2nnc(NC(=O)c3ccc(S(=O)(=O)N4CCc5ccccc5C4)cc3)o2)cc1,11.6
